Test results as given in the supplement of paper PMC8728848.
The list shows a part of the results.

How the values were obtained:
Assay in all cases: glycan array binding signal (z-score within array); higher = stronger binding
Details in all cases: glycan notation: IUPAC condensed, linker removed
[1] = target: Gal(b1-3)GalNAc(b1-3)Gal(a1-4)Gal(b1-4)Glc
How it was run: (§1)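 Negative Z-scores can be read as non-binding. The Z-score is calculated within each array and then averaged across arrays of one protein sequence at different concentrations or buffers and across linkers. Arrays, 3228 in all, were curated from the Consortium for Functional Glycomics database and kept only where the protein sequence was available.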

[2] = target: Gal(b1-3)GalNAc(b1-4)Gal(b1-4)Glc
How it was run: as §1

[3] = target: Gal(b1-3)GalNAc(b1-4)[Neu5Ac(a2-3)]Gal(b1-4)Glc
How it was run: as §1

[4] = target: Gal(b1-3)GlcNAc
How it was run: as §1

[5] = target: Gal(b1-3)GlcNAc(a1-3)Gal(b1-4)GlcNAc
How it was run: as §1

[6] = target: Gal(b1-3)GlcNAc(a1-6)Gal(b1-4)GlcNAc
How it was run: as §1

[7] = target: Gal(b1-3)GlcNAc(b1-2)Man
How it was run: as §1

[8] = target: Gal(b1-3)GlcNAc(b1-2)Man(a1-3)[Gal(b1-3)GlcNAc(b1-2)Man(a1-6)]Man(b1-4)GlcNAc(b1-4)GlcNAc
How it was run: as §1

[9] = target: Gal(b1-3)GlcNAc(b1-2)Man(a1-3)[Gal(b1-3)GlcNAc(b1-2)Man(a1-6)]Man(b1-4)GlcNAc(b1-4)[Fuc(a1-6)]GlcNAc
How it was run: as §1

[10] = target: Gal(b1-3)GlcNAc(b1-2)Man(a1-3)[GlcNAc(b1-4)][Gal(b1-3)GlcNAc(b1-2)Man(a1-6)]Man(b1-4)GlcNAc(b1-4)GlcNAc
How it was run: as §1

[11] = target: Gal(b1-3)GlcNAc(b1-2)[Gal(b1-3)GlcNAc(b1-6)]Man(a1-6)[Gal(b1-3)GlcNAc(b1-2)Man(a1-3)]Man(b1-4)GlcNAc(b1-4)GlcNAc
How it was run: as §1

[12] = target: Gal(b1-3)GlcNAc(b1-3)Gal(b1-3)GlcNAc
How it was run: as §1

[13] = target: Gal(b1-3)GlcNAc(b1-3)Gal(b1-4)Glc
How it was run: as §1

[14] = target: Gal(b1-3)GlcNAc(b1-3)Gal(b1-4)GlcNAc
How it was run: as §1

[15] = target: Gal(b1-3)GlcNAc(b1-3)Gal(b1-4)GlcNAc(b1-2)Man(a1-3)[Gal(b1-3)GlcNAc(b1-3)Gal(b1-4)GlcNAc(b1-2)Man(a1-6)]Man(b1-4)GlcNAc(b1-4)GlcNAc
How it was run: as §1

[16] = target: Gal(b1-3)GlcNAc(b1-3)Gal(b1-4)GlcNAc(b1-2)[Gal(b1-3)GlcNAc(b1-3)Gal(b1-4)GlcNAc(b1-6)]Man(a1-6)[Gal(b1-3)GlcNAc(b1-3)Gal(b1-4)GlcNAc(b1-2)Man(a1-3)]Man(b1-4)GlcNAc(b1-4)[Fuc(a1-6)]GlcNAc
How it was run: as §1

[17] = target: Gal(b1-3)GlcNAc(b1-3)Gal(b1-4)GlcNAc(b1-3)Gal(b1-4)GlcNAc(b1-2)[Gal(b1-3)GlcNAc(b1-3)Gal(b1-4)GlcNAc(b1-3)Gal(b1-4)GlcNAc(b1-6)]Man(a1-6)[Gal(b1-3)GlcNAc(b1-3)Gal(b1-4)GlcNAc(b1-3)Gal(b1-4)GlcNAc(b1-2)Man(a1-3)]Man(b1-4)GlcNAc(b1-4)[Fuc(a1-6)]GlcNAc
How it was run: as §1

[18] = target: Gal(b1-3)GlcNAc(b1-3)Gal(b1-4)GlcNAc(b1-6)[Gal(b1-3)GlcNAc(b1-3)]Gal(b1-4)Glc
How it was run: as §1

[19] = target: Gal(b1-3)GlcNAc(b1-3)Gal(b1-4)[Fuc(a1-3)]GlcNAc
How it was run: as §1

[20] = target: Gal(b1-3)GlcNAc(b1-3)Gal(b1-4)[Fuc(a1-3)]GlcNAc(b1-6)[Gal(b1-3)GlcNAc(b1-3)]Gal(b1-4)Glc
How it was run: as §1

[21] = target: Gal(b1-3)GlcNAc(b1-3)GalNAc
How it was run: as §1

[22] = target: Gal(b1-3)GlcNAc(b1-6)Gal(b1-4)GlcNAc
How it was run: as §1

[23] = target: Gal(b1-3)GlcNAc(b1-6)GalNAc
How it was run: as §1

[24] = target: Gal(b1-3)GlcNAc(b1-6)[Gal(b1-3)]GalNAc
How it was run: as §1

[25] = target: Gal(b1-3)GlcNAc6S
How it was run: as §1

[26] = target: Gal(b1-3)[Fuc(a1-4)]GlcNAc
How it was run: as §1

[27] = target: Gal(b1-3)[Fuc(a1-4)]GlcNAc(b1-2)Man
How it was run: as §1

[28] = target: Gal(b1-3)[Fuc(a1-4)]GlcNAc(b1-2)Man(a1-3)[Gal(b1-3)[Fuc(a1-4)]GlcNAc(b1-2)Man(a1-6)]Man(b1-4)GlcNAc(b1-4)[Fuc(a1-6)]GlcNAc
How it was run: as §1

[29] = target: Gal(b1-3)[Fuc(a1-4)]GlcNAc(b1-3)Gal(b1-3)[Fuc(a1-4)]GlcNAc
How it was run: as §1

[30] = target: Gal(b1-3)[Fuc(a1-4)]GlcNAc(b1-3)Gal(b1-4)[Fuc(a1-3)]GlcNAc
How it was run: as §1

[31] = target: Gal(b1-3)[Fuc(a1-4)]GlcNAc(b1-6)GalNAc
How it was run: as §1

[32] = target: Gal(b1-3)[GlcNAc(b1-6)]GalNAc
How it was run: as §1

[33] = target: Gal(b1-3)[Neu5Ac(a2-6)]GalNAc
How it was run: as §1

[34] = target: Gal(b1-3)[Neu5Ac(a2-6)]GlcNAc(b1-4)Gal(b1-4)Glc
How it was run: as §1

[35] = target: Gal(b1-3)[Neu5Ac(b2-6)]GalNAc
How it was run: as §1

[36] = target: Gal(b1-4)Gal
How it was run: as §1

[37] = target: Gal(b1-4)GalNAc(a1-3)[Fuc(a1-2)]Gal(b1-4)GlcNAc
How it was run: as §1

[38] = target: Gal(b1-4)GalNAc(b1-3)[Fuc(a1-2)]Gal(b1-4)GlcNAc
How it was run: as §1

B1: PX9937D-bvu-500-26-500 (Bacteroides vulgatus) (protein)
chain: DPVSDITDLNYWKTPEQFDSFVFGLHSRFRSHSWNMFLLGEARSDVFGGIPFGGEATQGMERFPYNTLNAENPGISGFGDLYQNINQMNLFISRTLHTDVLTESARNYYLGQVYGLRAYYMYQLYRSWGDVVFTEEPSLGFEVGKLAKAATPAAEIFEQVKKDIESSLSYFGSDYTIKEKKSLWSKAATLMLKADVYLWSAHRDGGEGDARTAKNALVDIQNNISRSNLDLMDTYQGVFAYDNKGNKEIIFTIHNELFEYNLWNGNNDLFPQADYLGKFYNADGTLINTSVENNFGIMRLMVKLENFKKFLPGDTRRDVTLKDVYNKVENGKLELVGVYPHKYWGVMNGSTRVRCDDYPIYRYSDLLLMLAEAKVLLGEDPATEINRVRRRAFGDAYDASTVGFPNQEVDKRPADAVLQERLFEFMLEGKRWYDLRRFGDSYVLDYTPAEPARLLWPINQGALTNNPLLKQTVGY
glycan array binding signal (z-score) [1]: -0.326
glycan array binding signal (z-score) [2]: 0.127
glycan array binding signal (z-score) [3]: 0.044
glycan array binding signal (z-score) [4]: -0.361
glycan array binding signal (z-score) [5]: -0.022
glycan array binding signal (z-score) [6]: 0.107
glycan array binding signal (z-score) [7]: -0.031
glycan array binding signal (z-score) [8]: 4.38
glycan array binding signal (z-score) [9]: -0.142
glycan array binding signal (z-score) [10]: 0.988
glycan array binding signal (z-score) [11]: 0.146
glycan array binding signal (z-score) [12]: -0.129
glycan array binding signal (z-score) [13]: -0.26
glycan array binding signal (z-score) [14]: -0.572
glycan array binding signal (z-score) [15]: -0.187
glycan array binding signal (z-score) [16]: 1.67
glycan array binding signal (z-score) [17]: 0.56
glycan array binding signal (z-score) [18]: -0.27
glycan array binding signal (z-score) [19]: -0.059
glycan array binding signal (z-score) [20]: -0.415
glycan array binding signal (z-score) [21]: -0.201
glycan array binding signal (z-score) [22]: -0.622
glycan array binding signal (z-score) [23]: -0.245
glycan array binding signal (z-score) [24]: 0.148
glycan array binding signal (z-score) [25]: -0.293
glycan array binding signal (z-score) [26]: -0.045
glycan array binding signal (z-score) [27]: 0.015
glycan array binding signal (z-score) [28]: -0.482
glycan array binding signal (z-score) [29]: -0.373
glycan array binding signal (z-score) [30]: -0.383
glycan array binding signal (z-score) [31]: 0.041
glycan array binding signal (z-score) [32]: 0.026
glycan array binding signal (z-score) [33]: -0.258
glycan array binding signal (z-score) [34]: -0.143
glycan array binding signal (z-score) [35]: 0.063
glycan array binding signal (z-score) [36]: -0.328
glycan array binding signal (z-score) [37]: -0.279
glycan array binding signal (z-score) [38]: -0.3
